Read counts are not given, so values of variants with three or more changes are uncertain.
B1: LINE1-mini (parent)
chain: GGCAGAGCUCAACACAGCGUGGCAAAGUGGCUGUGGCUAGACUGCC

Variants of: B1
Test: self-cleavage, relative activity (ratio to wild type); higher = more cleavage; in vitro, sequencing; the parent is a self-cleaving ribozyme

Variant | self-cleavage
U9G U20A G40C C42U | 0.03
C3G G7U C15A G19U G21A A25U | 0.14
A6U C18U G22U A24G | 0.77
G2U G44A C46U | 0.03
G5U C15U A16C G21U A24G | 0.04
C10G G29U A41U | 0.02
G19A U20C A25C A26U U34A | 0.01
A11C C15A A16C C18G G40C | 0.01
G5U C15U G22C U28C U32G A39C | 0.01
C8U C15U U20A C23U | 0.7
G22U A25G G29U U43G G44C | 0.22
A14C U20A G33A | 0.06
A16U G27A U28G G36C G40U | 0.07
A24C G36A A41U | 0.31
C3U A11C A16U | 0.02
G1C A6C U9A C42A | 0.01
A16C G19A U20C | 0.28
A4G A6C U28A G29U U38A G44C | 0.07
A12G G21U G22C U28G G33U | 0.23
C23A A24U G29A G33A A41C | 0.07
G2A G17C G22U G40U | 0.15
G1C A6G G44U | 0.09
G5A C10A C15A U20A | 0.08
G30C U32C G36C U38G | 0.01

Variant | self-cleavage
G1A A26G C31A | 0.08
A11G G29A C31U G35A A41C | 0
C18A U32A U38A | 0.01
A25U C37U U38A A39U | 0.07
A6U A14U A26U | 0.82
U9G G27C G33U U38G | 0.08
A4C C8G G27U | 0.15
G1U G2C C10G U34A | 0
G2C U9A C18U G22U | 0.05
G1U G21U U28A G40C | 0.02
A4U C13U C37U | 0.08
G2A A12G C37G | 0.2
G2C C3A U32A | 0.07
G2C C10U A24G | 0.05
C13U G22A A24C C31A U38A A39G | 0.11
A4U G5U C13U C18U C42U | 0.03
C13G A39C C42A | 0.04
G5C G17U A39C G40C C42A | 0
A12C G17A C18A G21A A26G G33U | 0
A16U C18U G22C G35C | 0.03
G7A A12C U20C | 0.01
G17U G27A G35A | 0.06
A4G A14C G35A C37A C45A | 0.01
G5U G7U G35C | 0.13

Variant | self-cleavage
G1U G29C G33C | 0.01
C3U C8U A11U | 0.05
C3U A11C A41C | 0.01
C18A C45U C46A | 0.1
A12C G30U C37A | 0.01
A11G A25G G27U | 0.01
G1C A6G G17U G22A A25U U28C U34A | 0.03
A4C G27A U34C G40U C45U | 0.07
C10U A12U C23U | 0.04
G7A A11U U20C A26U | 0.02
A4C A11C G30A C37G | 0.02
C10G C15A A25G C46U | 0.02
U20A A39U A41U | 0.24
G5U G21A C23U A25U C46U | 0.08
C8U A11C A16C C18U C31U G40U | 0
G7U A12C C42G | 0.01
C13U A16C G40A | 0.06
C15U U43C C45U | 0.13
C3A C10A A11U U43C | 0.01
U20A G33U A41G C42G C45A | 0.02
C10G G17A G29A U32C | 0.17
G5U G22A G29U | 0.06
G2U G17A G40A | 0.04
G1A A14U U20G U34C | 0.1

Variant | self-cleavage
A12U A14U A41C | 0.05
G36U A41G C46U | 0.03
G27U C31A U34C A39C | 0.19
C3U A14C G19U U20G U32A G40A | 0.13
C3U A11C C13U G40C | 0.02
G1A G2U G5U U9G G17A A41C | 0.13
C8G G19U U28G G30U | 0.23
U32C A41C C42A | 0.05
C10G A12U G36U | 0.01
G1A G7U C8A C23G G35U | 0.57
G2C G40C C46G | 0.17
C10G U20C C37U A41U | 0
C8G A14C G17C G22U G29A G44U | 0.12
G17U G35U C45A | 0.02
G22A A24G C46U | 0.41
G5A G19U C23A G27C C42A C46A | 0.02
U9A C18G U43A | 0.01
C10U A25U G33A | 0.04
C3U G30U G33U | 0.09
G40C C42A U43A | 0
G7C C15A C31A | 0.15
C18A G22C G44C | 0.13
A16G U34G C42G | 0.03
A16G C18U C31G | 0.01

Variant | self-cleavage
G1C C10A G27C C42U | 0.02
A11U A12C A14G U20A G22C C23A U28C | 0.01
A16U A26U G44U | 0.04
C3G G7C G21U G40U | 0.02
G5U C10G A12C | 0.01
G2C A6G C10U A39U C42U | 0.04
C10U A11C C45A | 0.01
A6C A26C A41U C42A C45G | 0
C8U U43C G44U | 0.13
C3U A12G A39G U43C | 0.05
G7C U34G C42G | 0.01
G7C U32A G33A C46G | 0.03
A16U U20C C42G U43C | 0.03
A4U A12G G21U | 0.1
G17C G19U A26G G33A U34G | 0
A24C C31A G33A C45U | 0.14
A24C C37G G40A C42A | 0.03
G5A A14C U20G C42U | 0.05
G21U G36A A41U C42G U43G | 0.26
G1A A4C C15A A25C | 0.05
C10U G33C G40C | 0.04
C3U G29A G33C | 0.03
A11C G19U C42A | 0
G21U A24C A41C | 0.09

Variant | self-cleavage
C13U G33U C46A | 0.12
G2C C10A C15A G33A U34A | 0.03
C15U A26G C31G G33C A41C | 0.02
G21A U28C G36U | 0.04
A4C U9C G33U A41G | 0.03
A14G G21C G27C | 0.67
G7C C8G G36U | 0.11
C3G C13U C18A G27U G29U | 0.02
A11C C18U G22C G33U | 0.02
A6C G21U C31U | 0.06
C15U G17C U34A G40A | 0.14
U9A U28A G35U | 0.1
C18G U28C C42U C46U | 0.1
C3A G5U C13G | 0.15
U9G C15U G17A G40C | 0.02
A11C U20C A26U | 0.01
G2U C13U A16C G17A | 0.01
A12C C13A G17C G44A | 0.04
G1U U38G G40C | 0.01
U9A G17A C23A | 0.04
G7C G17A G29C | 0.08
A24C G29U U32A | 0.15
C15A G30A G33A U34A | 0.01
G17U A25U U38G | 0.02

Variant | self-cleavage
A26U G40A C46U | 0.03
C13U G17C G22A G30A G44A | 0.04
C8U U9A A11G | 0
G1C G2U G5A C8U G29A | 0.05
C15U U20A G35U U38G C45A | 0
G7U A14C C31U G35A | 0.01
U20A A24G A39G | 0.02
G7A A14C A39U U43C C46A | 0.03
C31G G35U C42A | 0.02
A14U A26G G35C | 0.05
C10U A12G G22U A41U | 0.02
G22A C23G G35U A41C | 0
A6C C13A A14G G17U G22C C23A | 0.05
A6G U9C G36U G44C C45G | 0
A4U G5A U9A A14C | 0.12
C13G A25G A41U C42A | 0.02
G2A A24G G33C | 0.04
G7A C13A A41C | 0.13
A4G A14U G19U G30A | 0.06
C13A G22U U32G | 0.04
A24U A26U G33U | 0.06
U9C A12C A25U G27C G33U C45U | 0.01
A4C C18G U20G U38G | 0.01

Source: the RNAGym collection of RNA variant scans (doi:10.7554/elife.90254)
